According to article PMC7819943, “Rice protein-binding microarrays: a tool to detect cis-acting elements near promoter regions in rice”:
The list shows a part of the results.

Target: T1, OsWOX13 (Oryza sativa, UniProt Q5QMM3 1-267)
T1 sequence: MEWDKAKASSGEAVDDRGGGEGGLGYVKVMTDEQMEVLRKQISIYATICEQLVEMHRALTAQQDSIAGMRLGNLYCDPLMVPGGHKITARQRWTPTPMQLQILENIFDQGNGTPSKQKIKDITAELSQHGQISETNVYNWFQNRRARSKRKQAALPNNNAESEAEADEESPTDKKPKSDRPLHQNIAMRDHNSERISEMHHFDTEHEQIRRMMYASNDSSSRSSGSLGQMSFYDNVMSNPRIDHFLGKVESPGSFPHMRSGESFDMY
Test: protein-binding microarray (RPBM); PBS, 2% BSA, 51.3 ng/ul salmon testes DNA, 50 uM zinc acetate, 200 nM TF, 25 C, 1 h; high values mean tight binding
Settings: protein: recombinant; tags: N-terminal polyhistidine and DsRed monomer fusion (pET32a); label: CyDye5-dUTP incorporated in the synthesized complementary strand; 3' TTTTT single-stranded linker to array surface; dsDNA, one strand shown
Method in brief: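 An Axon 4000B scanner gave the binding signal as per-feature fluorescence intensity in arbitrary units. This followed washing of a custom Agilent array that had been incubated for 1 h at 25 °C with 200 nM protein in PBS, 2% BSA, salmon testes DNA and 50 µM zinc acetate. The proteins were transcription factors fused at the N-terminus to polyhistidine and DsRed, expressed in E. coli BL21-CodonPlus and purified on Ni–NTA.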

Sequence	binding signal
GTAATCCGCAAATTAAATCTATTCTAAAAGTAAGATTTTGCGGAGTCACCTAGTGCAG	3220 fluorescence intensity (a.u.)
GTAAACAAAATCACCATGTCTTATATGTAGCAATAGTAGTCGGAGTCACCTAGTGCAG	3360 fluorescence intensity (a.u.)
GTAAAATTAACTTTACAAAGCTATTTTAGTCTTGTTTTGCCGGAGTCACCTAGTGCAG	6910 fluorescence intensity (a.u.)
TCTGTGCTGATTAATCTCTCCCTCTCTTTGTTCCTCTTCTCGGAGTCACCTAGTGCAG	13500 fluorescence intensity (a.u.)
TACGTAATTATCATTTGTTTTATCGCTAGAAGTACTTTAGCGGAGTCACCTAGTGCAG	24100 fluorescence intensity (a.u.)
TGCTTAATTTATATCATCACCGTTCAGTTAATACGGTATACGGAGTCACCTAGTGCAG	30800 fluorescence intensity (a.u.)
TTTGATTAGGAAAACAAGCGACAATATTTTGATTTTAAATCGGAGTCACCTAGTGCAG	12900 fluorescence intensity (a.u.)
ACAAATCAAAGAGCTTAATTGGTCAACAAGATGAGCTGCCCGGAGTCACCTAGTGCAG	22800 fluorescence intensity (a.u.)
CGTCTCACAAATTAATCGCAAATCTGTGCAATTGGTTATTCGGAGTCACCTAGTGCAG	3400 fluorescence intensity (a.u.)
CTACCAAATTTAAATTTGATAATTTTAATAGTAGCAAATACGGAGTCACCTAGTGCAG	22100 fluorescence intensity (a.u.)
ACAATATAATTTTCTATTATTTAACGGTATCGGTACTGTCCGGAGTCACCTAGTGCAG	11100 fluorescence intensity (a.u.)
CGTGGATTAAACAAACAGAGGATTTCGGTGAGGATTGAGGCGGAGTCACCTAGTGCAG	4160 fluorescence intensity (a.u.)
CTCTAAATTTTCTGTCTCTTTCTTCCCTAGGTTCTTATCGCGGAGTCACCTAGTGCAG	6620 fluorescence intensity (a.u.)
ACATCTTAGTAATAGACTAGATTAATAATAAACCACTTCACGGAGTCACCTAGTGCAG	3850 fluorescence intensity (a.u.)
GTCAAAATTTGTTCAAATTTATCCCTTCTTTTCCCAAAATCGGAGTCACCTAGTGCAG	5530 fluorescence intensity (a.u.)
CTAGCTTCCAATCAACCAGACAACAACCACATATATCTTTCGGAGTCACCTAGTGCAG	3610 fluorescence intensity (a.u.)
AGGCTACTGGATTAATTAATTATATCCTTCAATCAAACAACGGAGTCACCTAGTGCAG	20500 fluorescence intensity (a.u.)
TCCTACAAATTAATTTATAATGTCATAAGATTTATATTTTCGGAGTCACCTAGTGCAG	22100 fluorescence intensity (a.u.)
AATTGATTTCTTCGCTGATGAGCAAACATGCTGGAGAGTGCGGAGTCACCTAGTGCAG	36400 fluorescence intensity (a.u.)
TTGTAGTTAACTTTTGATAAGATTGAGATGGAATTTCATACGGAGTCACCTAGTGCAG	8280 fluorescence intensity (a.u.)
CTTTTGGAATTGACAATGATGACGAAGGGAGTGCATTTGACGGAGTCACCTAGTGCAG	13100 fluorescence intensity (a.u.)

Sequence	binding signal
TATAATTTTGTGCTAATATGCATTTTCCTTGTTTTGTTTACGGAGTCACCTAGTGCAG	11500 fluorescence intensity (a.u.)
AAAACCGTCCTAATTAATGTAATCCTGAACGATACGACGACGGAGTCACCTAGTGCAG	9010 fluorescence intensity (a.u.)
ATGAATGAGTATAAATTATCTGTACTAGAATAATTGGCTCCGGAGTCACCTAGTGCAG	7760 fluorescence intensity (a.u.)
GTTATATGATTGATTTATAATTTTCTAATAATTATACCAACGGAGTCACCTAGTGCAG	50100 fluorescence intensity (a.u.)
AAGCAATTACTCACTAAATTGGCTATGGCTAGTGAGAGGTCGGAGTCACCTAGTGCAG	33200 fluorescence intensity (a.u.)
TGAGATATGTATTTGCCAATTATCCCCATATCTCTTTGAGCGGAGTCACCTAGTGCAG	3180 fluorescence intensity (a.u.)
TTTGATGTAATAAGTTTCACTTCGAAATTAAATCAGGGGTCGGAGTCACCTAGTGCAG	4610 fluorescence intensity (a.u.)
TGTAATTACACTATAATTATATTCTAAATACATCTGTTAACGGAGTCACCTAGTGCAG	45500 fluorescence intensity (a.u.)
ATTTATAATATTTAATTTAATTCAACCATGTGAGAATTTTCGGAGTCACCTAGTGCAG	3940 fluorescence intensity (a.u.)
GTTACTATGATGTCCATCAAATTTGAACACATCCAGACTTCGGAGTCACCTAGTGCAG	5730 fluorescence intensity (a.u.)
GTTTTGATTATCATAGCTCATAGATGGGCACTCCGCCACTCGGAGTCACCTAGTGCAG	22200 fluorescence intensity (a.u.)
ATCAATCAATTATTTTAGTTCAGATTCTGCACAAAACAAACGGAGTCACCTAGTGCAG	3830 fluorescence intensity (a.u.)
AAGCACTAATTTCTTATCCGCTTTAGCTTCCCGTGAGGCCCGGAGTCACCTAGTGCAG	5050 fluorescence intensity (a.u.)
TTATTTATCAGTCTGATTTTATATAATGTAATATTATGCACGGAGTCACCTAGTGCAG	3150 fluorescence intensity (a.u.)
ATTGATTAAACCCGGCCTCTACATCCAAACTGGATGTACACGGAGTCACCTAGTGCAG	19000 fluorescence intensity (a.u.)
TCAAATTGTGGAGCGAAATTATCTTTGGAAGTATTTGTCCCGGAGTCACCTAGTGCAG	5950 fluorescence intensity (a.u.)
CTAATTAATTAATCACAAGATAATGTATCGTTCCGTTTTCCGGAGTCACCTAGTGCAG	43500 fluorescence intensity (a.u.)
GACTAATTGACTTGGACGGAGACCCCGCTGTTGAAGGTCACGGAGTCACCTAGTGCAG	39200 fluorescence intensity (a.u.)
AAGCAATATAATTGTTTCTCTAATTAGGAGTTATACATGTCGGAGTCACCTAGTGCAG	19000 fluorescence intensity (a.u.)
ATCAATTGGGCTGATTTTCGGGGATGGATAACATAGAATTCGGAGTCACCTAGTGCAG	7450 fluorescence intensity (a.u.)
GTAAGAGCCAAATCATGATGGATTGATGGGGTGCACATGTCGGAGTCACCTAGTGCAG	16500 fluorescence intensity (a.u.)

Sequence	binding signal
TATGTTTGTTGCACTTTGATTATTTGGGTGTTTCATTATCCGGAGTCACCTAGTGCAG	3350 fluorescence intensity (a.u.)
ACGAGAGCTTTATTGATTAGACCACAGAATTACACACTTACGGAGTCACCTAGTGCAG	3180 fluorescence intensity (a.u.)
GAGTTGACAGTTCGTCACTAGCTCGATCGCTAGTCGTCGCCGGAGTCACCTAGTGCAG	4740 fluorescence intensity (a.u.)
TTAATTAGGAGCATTTCCATTGTCATTTGCTGATTCATATCGGAGTCACCTAGTGCAG	3920 fluorescence intensity (a.u.)
ATAATTTCATGCACAAATTAACGGAGCAATATTGCAGTAACGGAGTCACCTAGTGCAG	9830 fluorescence intensity (a.u.)
TTTTAATTTCTACCAACAATTAATTATGTTTGCCAGCAAACGGAGTCACCTAGTGCAG	10300 fluorescence intensity (a.u.)
ACGGACACAAATTTGATGTATTAAACATAGAATAATAAAACGGAGTCACCTAGTGCAG	3700 fluorescence intensity (a.u.)
ATATGCTAATTATGGATTAATTAAATTTAAAAGATTCGTCCGGAGTCACCTAGTGCAG	38800 fluorescence intensity (a.u.)
CATCAATCTTCACCTATAAATTCTTGGCCAGCTGAACACACGGAGTCACCTAGTGCAG	4960 fluorescence intensity (a.u.)
AACTTATTAAATGGCCATTAAGTTAGCAATCATCACAAACCGGAGTCACCTAGTGCAG	8430 fluorescence intensity (a.u.)
GTTAATTAGTACTCCGTGTAATCTTGTTTGACGGTCAGGACGGAGTCACCTAGTGCAG	33000 fluorescence intensity (a.u.)
CTGACACCAACAGCCGACCTGATTGAGAGAGATCAATTAACGGAGTCACCTAGTGCAG	6500 fluorescence intensity (a.u.)
GTGTAATTGGTATGATATAGGCGGCATATTATATATATCACGGAGTCACCTAGTGCAG	21400 fluorescence intensity (a.u.)
GAGACAAAGATTTAACAAATTTGCTCAACTACCGATCGAACGGAGTCACCTAGTGCAG	6550 fluorescence intensity (a.u.)
ATTCTGAATTTTAATTAATCTCATATTGGGTTCTTATATGCGGAGTCACCTAGTGCAG	5170 fluorescence intensity (a.u.)
TTAATGTTAAATTTAATGAAGCTAGTTTGGTGTTATAGATCGGAGTCACCTAGTGCAG	8140 fluorescence intensity (a.u.)
ACTTTAATTAAAATCAAATTATTATAAGTTTAATTAATTTCGGAGTCACCTAGTGCAG	19400 fluorescence intensity (a.u.)
CTGTTTAGTTAATTACTCATCAGTTAGTCTTGCATAATTTCGGAGTCACCTAGTGCAG	15200 fluorescence intensity (a.u.)
AATTAATAATTACTTAAATGTTTTGAATAAGACGAATGGTCGGAGTCACCTAGTGCAG	16400 fluorescence intensity (a.u.)
TTAAATAATTGGTTTTACGATAAGTTTGTCAAACTACAATCGGAGTCACCTAGTGCAG	3770 fluorescence intensity (a.u.)
TGTGACAAACAATGATTACCAAGCTTTTGGGGAAATATAGCGGAGTCACCTAGTGCAG	16900 fluorescence intensity (a.u.)

Sequence	binding signal
GCGAGATAAATCAACCAATTTCGTATGGATTTTGGTGCCTCGGAGTCACCTAGTGCAG	3990 fluorescence intensity (a.u.)
AAGTCATAATAAGGTTAATTGGTTGTAGTATAGTTAAGGTCGGAGTCACCTAGTGCAG	10500 fluorescence intensity (a.u.)
GCCAATCAGTGAGAAAGCAAGTGATTACAGATCTAGAGATCGGAGTCACCTAGTGCAG	6600 fluorescence intensity (a.u.)
CACCTGTTAATCACAAACATTGCTTTGAAGCTCTTGACCGCGGAGTCACCTAGTGCAG	6210 fluorescence intensity (a.u.)
ATTGCAATCAGTCAATATTATCCATAGTCTCTGATAGAGACGGAGTCACCTAGTGCAG	13900 fluorescence intensity (a.u.)
GTTGTGGTGATTTGGGATCTAGATGACACACTATGACAAGCGGAGTCACCTAGTGCAG	5840 fluorescence intensity (a.u.)
CAGGATAATTTCATCAAAATGCCTCTGGAATTTAGGAAAACGGAGTCACCTAGTGCAG	5110 fluorescence intensity (a.u.)
AATAAATAATTATTGCTAATGGGTGATGATGTGGCATGGTCGGAGTCACCTAGTGCAG	25200 fluorescence intensity (a.u.)
AAGTGATTGCCCTGGCTCAGAGTTGAGTAAACAATCAGGCCGGAGTCACCTAGTGCAG	19900 fluorescence intensity (a.u.)
CAATTCCAAAATTAATTAATGCAGTTCATGTACCCCTTTTCGGAGTCACCTAGTGCAG	10400 fluorescence intensity (a.u.)
CAGTAATAAACAAATCAAGTCAGAAGAGAAGGGAGGCATGCGGAGTCACCTAGTGCAG	4180 fluorescence intensity (a.u.)
TTTAATTGGCGGTAGTAGAATTATACAAGGCGCGATGGAGCGGAGTCACCTAGTGCAG	27200 fluorescence intensity (a.u.)
ACACAGCTAATTAGCTCTATGACTAAATGAATAAAATGACCGGAGTCACCTAGTGCAG	25800 fluorescence intensity (a.u.)
AAGTCTAATTAATTCATAATTAGCACATGTTTACTGTAGCCGGAGTCACCTAGTGCAG	53800 fluorescence intensity (a.u.)
TATAATCTCATGCACCTTAATTTGTTTCTTAGTGGCCCAGCGGAGTCACCTAGTGCAG	3240 fluorescence intensity (a.u.)
GTCTTGTTTTAAAGATTTAATTGCAACGAATTTAATGGTGCGGAGTCACCTAGTGCAG	3480 fluorescence intensity (a.u.)
ACTAACGATTGATCGCCATCAAGTATAGCTATAGCTAGCTCGGAGTCACCTAGTGCAG	11300 fluorescence intensity (a.u.)
ATTTAAATTAATCTTACTTTTGAATATGAGTAAATTACATCGGAGTCACCTAGTGCAG	13600 fluorescence intensity (a.u.)
ATGTGATTCGAATTTTAGATCTGCAATGTATTTGGATAAGCGGAGTCACCTAGTGCAG	3330 fluorescence intensity (a.u.)
TCAATTAGATAGATTAATATGTTATAGATCATTCTACAAACGGAGTCACCTAGTGCAG	21900 fluorescence intensity (a.u.)
ATGATTTCTTGATCTGGAAGCTTGCGCGATCTCACAATCCCGGAGTCACCTAGTGCAG	3270 fluorescence intensity (a.u.)
